# In patent US20240374736A1, “INHALED LIQUID FOR THE TREATMENT OF RESPIRATORY INFECTIONS IN HUMANS CAUSED BY PATHOGENS RESISTANT TO ANTIBIOTICS” (priority 2023, published 2024):
# What was measured:
# Candida = assay: In vitro test, zone diameter on Müler-Hinton-Agar; assay type: cell-based; conditions: amount used: novel compound 0.05 mL, Cephalosporin 0.1 mL, Ampicillin 0.2 mL
# Pasteurella = assay: In vitro test, zone diameter on Müler-Hinton-Agar; assay type: cell-based; conditions: amount used: novel compound 0.05 mL, Cephalosporin 0.1 mL, Ampicillin 0.2 mL
# Micrococcus = assay: In vitro test, zone diameter on Müler-Hinton-Agar; assay type: cell-based; conditions: amount used: novel compound 0.05 mL, Cephalosporin 0.1 mL, Ampicillin 0.2 mL
# Campylobacter = assay: In vitro test, zone diameter on Müler-Hinton-Agar; assay type: cell-based; conditions: amount used: novel compound 0.05 mL, Cephalosporin 0.1 mL, Ampicillin 0.2 mL
# Cryptococcus = assay: In vitro test, zone diameter on Müler-Hinton-Agar; assay type: cell-based; conditions: amount used: novel compound 0.05 mL, Cephalosporin 0.1 mL, Ampicillin 0.2 mL
# rats = conditions: p.o., 2,250 μL/kg
# humans = assay: Clinical pilot study of side effects on 80 humans (inhalation)
# [1] = inhaled 10 mL of 2%/30 kg body weight every 8 h for 7 days
smiles,measurement,setting,value
"CC1(C)S[C@@H]2[C@H](NC(=O)[C@H](N)c3ccccc3)C(=O)N2[C@H]1C(=O)O [Ampicilin, Ampicillin]",R (evaluation of the results by zone diameter),Candida,R (0 mm-4 mm: resistant: R)
same,zone diameter,Candida,4 mm
same,R (evaluation of the results by zone diameter),Pasteurella,MS (5 mm-9 mm: moderately sensitive: MS)
same,zone diameter,Pasteurella,5 mm
same,R (evaluation of the results by zone diameter),Micrococcus,R (0 mm-4 mm: resistant: R)
same,zone diameter,Micrococcus,0 mm
same,R (evaluation of the results by zone diameter),Campylobacter,MS (5 mm-9 mm: moderately sensitive: MS)
same,zone diameter,Campylobacter,7 mm
same,R (evaluation of the results by zone diameter),Cryptococcus,R (0 mm-4 mm: resistant: R)
same,zone diameter,Cryptococcus,0 mm
"C=CCc1ccc(O)c(OC)c1.CCN(CC)CC(=O)Nc1c(C)cccc1C [novel compound, N-[N′-(carboxymethylenyl-2,6-dimethyl-aniline)-N,N-diethylammonium]-[2′-methoxy-4′-(2′-propenyl)]-phenolate]",R (evaluation of the results by zone diameter),Candida,ES (21 mm and more: extremely sensitive: ES)
same,R (evaluation of the results by zone diameter),Pasteurella,ES (21 mm and more: extremely sensitive: ES)
same,breathing and cardiac functions,rats,regular
same,time after which discomfort symptoms disappeared,rats,1 to 3 min
same,coughing,humans; at the beginning of the test,Sporadic coughing was recorded in some participants
same,respiratory function,humans; during the clinical study,not disturbed
same,pulse frequency and blood pressure,humans; during the inhalation,not significantly altered
same,electrocardiography measurements,humans; during the intake,regular without any pathological and irregular oscillations
same,C Reactive Protein (CRP) measurements,humans; during the study,no inflammation was developed
same,bronchospasms,humans; during the test,No bronchospasms were recorded
same,dyspnea,humans; during the test,No dyspnea was recorded
same,kidney functions (urine and blood parameters),humans; for the period of testing,did not have any negative effects on the kidneys
same,allergy symptoms,humans; [1],no allergy symptoms
same,tolerance,humans; [1],showed tolerance
same,R (evaluation of the results by zone diameter),Micrococcus,ES (21 mm and more: extremely sensitive: ES)
same,R (evaluation of the results by zone diameter),Campylobacter,ES (21 mm and more: extremely sensitive: ES)
same,R (evaluation of the results by zone diameter),Cryptococcus,ES (21 mm and more: extremely sensitive: ES)
